Results from PubChem BioAssay AID686979 (National Center for Advancing Translational Sciences (NCATS), 2013).
In all, about 420,000 compounds went through this assay and about 50,000 (12%) were called active. This list was built around the results that the source calls inconclusive (neither active nor inactive); the mix of calls is not that of the screen. The call rests on the fitted dose curve; in most records, active means well fitted inhibition curve with a large enough effect; inconclusive means small, poorly fitted or top-dose-only effect; inactive means flat fitted curve, though single readings scatter. No potency is given beside an inconclusive call; the fits are too rough.

experiment: qHTS for Inhibitors of human tyrosyl-DNA phosphodiesterase 1 (TDP1): qHTS in cells in presence of CPT; conditions: chicken DT40 Tdp1-/-;hTDP1 cells + 20 nM CPT, ATP luminescence, 48 h; activity change, negative = growth inhibition: at 46.2 µM (top of the series); further: nearly all actives have a fitted effect of over 55% in size
How it was run: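 Chicken DT40 Tdp1-/- cells complemented with human TDP1, 400 cells/well, exposed to compounds plus 20 nM camptothecin for at least 48 h at 37 C; viability read as ATP content by CellTiter-Glo luminescence.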
On the % scale 0 is the no-effect control and ±100 the full control effect; potency means the concentration at half of the fitted maximal effect; tags describe the fitted curve by direction and shape.

| Compound | Potency | activity change, negative = growth inhibition |
| --- | --- | --- |
| COc1ccc(C(=O)/C=C/c2ccc(N3CCCCC3)c([N+](=O)[O-])c2)cc1 | inconclusive [inhibitor, full curve, poor fit] | – |
| Cc1ccc(NC(=S)N(CCCN2CCN(C)CC2)Cc2cccs2)cc1C | inactive | – |
| COc1ccc(CN(C(=O)c2ccc(-c3ccccc3)[nH]2)C(C(=O)NC(C)(C)C)c2ccncc2)cc1 (centres undefined) | inconclusive [inhibitor, single point] | – |
| COc1ccccc1NS(=O)(=O)c1ccc2c(c1)OCCO2 | inactive | – |
| O=C(NCc1ccco1)c1cccc(S(=O)(=O)N2CCOCC2)c1 | inactive | – |
| CCCCN(CC)C(=O)Cn1c(=O)n(-c2ccc(OCC)cc2)c(=O)c2c3c(sc21)CCC3 | inconclusive [inhibitor, single point] | – |
| COCCCN1C(=O)C(=O)/C(=C(/O)c2ccc(C)cc2)C1c1ccccc1 (centres undefined) | inactive | – |
| Cn1nc(C(=O)N2CCN(c3ccccc3)CC2)c2c1-c1ccccc1SC2 | inactive | – |
| CCC(C)Sc1cc(-c2nc3ccc(Cl)cn3c2NC2CCCCC2)ccc1OC (centres undefined) | active: 16.4 µM | – |
| CCOc1ccc(NC(=O)c2cccc3c2C(=O)N(Cc2cccnc2)C3)cc1 | inconclusive [inhibitor, partial curve] | – |
| O=C(c1ccc2c(c1)OCO2)c1cn(Cc2ccc(F)cc2)c2ccccc2c1=O | inconclusive [inhibitor, single point] | – |
| COc1ccc(NC(=O)c2sc3ncn(CC(=O)N4CCCCC4)c(=O)c3c2C)cc1OC | inconclusive [inhibitor, single point] | – |
| O=C(N/N=C/c1cc([N+](=O)[O-])ccc1O)C1CC1 | inconclusive [inhibitor, single point] | – |
| CCc1cccc(NC(=S)N(CCCN2CCOCC2)C(C)c2cc3cccc(OC)c3o2)c1 (centres undefined) | inconclusive [inhibitor, single point] | – |
| Cc1cc(NC(=O)c2ccoc2C)no1 | inactive | – |
| O=C(O)c1ccc(-c2cccc(Cl)c2)o1 | inactive | – |
| O=C(O)CC(NC(=O)c1cccc(F)c1)c1ccc(OC2CCCC2)cc1 (centres undefined) | – | inconclusive: -5% [inhibitor] |
| COc1ccc2[nH]c3c(c2c1)CCN1C(=O)C(CC(=O)NCC24CC5CC(CC(C5)C2)C4)C[C@H](C(=O)N2CCOCC2)[C@@]31C (some centres undefined) | inconclusive [inhibitor, single point] | – |
| CC12CCC(C(=O)N3CCN(Cc4ccccc4)CC3)(OC1=O)C2(C)C (centres undefined) | inactive | – |
| CN(C)c1ccc(N=Nc2ccccc2C(=O)OCC(=O)N(C)c2ccccc2)cc1 | active: 20.6 µM | – |
| NC(c1csc(Nc2ccccn2)n1)C1CCCCC1 (centres undefined) | active: 14.6 µM | – |
| Cc1ccccc1C(=O)Nc1ccc(C(=O)N/N=C/c2ccc(O)cc2)cc1 | inconclusive [inhibitor, partial curve, poor fit] | – |
| COc1cc(OC)c(C2C=C(C(=O)O)Nc3ncnn32)cc1OC (centres undefined) | inactive | – |
| O=C(OCCN1C(=O)CCC1=O)c1ccc(S(=O)(=O)N2CCCCC2)cc1 | inactive | – |
| O=C(Nc1ccccc1Cl)c1cc(C2CCCCN2C(=O)CCc2ccccc2)on1 (centres undefined) | inconclusive [inhibitor, partial curve, poor fit] | – |

| Compound | Potency | activity change, negative = growth inhibition |
| --- | --- | --- |
| COc1ccc(-c2csc(NC(=O)C3CSC4(C)CCC(=O)N34)n2)cc1OC (centres undefined) | inactive | – |
| COC(=O)CC1(C(=O)OC)Oc2ccc(Br)cc2C(=O)N1c1ccc(Br)cc1Cl (centres undefined) | active: 5.8 µM | – |
| Cc1ccc(C[n+]2cc(-c3ccc(Cl)cc3)n3c2CCC3)cc1 | active: 5.17 µM | – |
| O=C(NCc1ccccc1)c1cc(-c2ccncc2)nc2ccccc12 | inconclusive [inhibitor, single point] | – |
| O=C(OCCN1C(=O)c2cccc3c(N4CCOCC4)ccc(c23)C1=O)c1ccc(Cl)cc1 | active: 2.06 µM | – |
| O=C(CCc1ccccc1)N1CCN(c2ccc([N+](=O)[O-])cc2)CC1 | inconclusive [inhibitor, single point] | – |
| Cc1ccc(C(=O)c2ccccc2C(=O)OCC(=O)NC(=O)NC(C)(C)C)cc1 | inactive | – |
| Cc1c(F)cccc1NC(=O)C1CCCN1S(=O)(=O)c1ccc(F)cc1 (centres undefined) | inconclusive [inhibitor, partial curve] | – |
| COc1ccc(/C=C/C(=O)OCC(=O)c2ccc3c(c2)NC(=O)CO3)cc1 | inconclusive [inhibitor, single point] | – |
| CCN(CC)c1nc(Nc2ccccc2)nc(Oc2ccc(=O)n(C)n2)n1 | inconclusive [inhibitor, single point] | – |
| CCc1ccc(NC(=O)COC(=O)Cn2cnc3ccccc32)cc1 | inactive | – |
| CCN1CCN(C(=O)c2c(-c3c(F)cccc3Cl)noc2C)CC1 | inactive | – |
| CC(C)(C)C1=Nn2c(nnc2-c2ccccn2)SC1 | inactive | – |
| COc1cc(/C=C(\C#N)C(=O)NC2CCCCC2)ccc1OCc1ccc(C(=O)O)cc1 | – | inconclusive: -30.4% [inhibitor] |
| CCc1ccc(NC(=O)c2cc(C)no2)cc1 | inactive | – |
| CCCCN1C(=O)C(=O)N(CC(=O)Nc2sc(C)c(CC)c2C(=O)OCC)C1=O | inconclusive [inhibitor, partial curve] | – |
| Cc1cnc(C(=O)Nc2nnc(SCc3c(Cl)cccc3Cl)s2)cn1 | inconclusive [inhibitor, single point] | – |
| COc1cc(CN2CC(=O)N(c3ccc(C)c(Cl)c3)C2=S)cc(OC)c1OC | – | inconclusive: -30.5% [inhibitor] |
| Cc1cc(C)c(C(N)=O)c(Cl)n1 | inactive | – |
| CC/C(=C\C1CCCCC1)C(NP(=O)(c1ccccc1)c1ccccc1)c1ccccc1 (centres undefined) | inconclusive [inhibitor, single point] | – |
| CN(CCO)c1ccc(C=NNc2ccc([N+](=O)[O-])cc2S(=O)(=O)Nc2ccccc2C(=O)O)cc1 | inactive | – |
| CCC(CO)Oc1cc(NCc2ccc(OC)cc2)c2ncn(C(C)C)c2c1 (centres undefined) | inconclusive [inhibitor, single point] | – |
| Cc1ccc2[nH]cc(C(c3ccccc3)c3cccs3)c2c1 (centres undefined) | inconclusive [inhibitor, single point] | – |
| COc1cc(OC)c(NC(=O)c2ccc3nc(C(C)C)oc3c2)cc1Cl | active: 9.2 µM | – |
| c1ccc(C[C@H]2CN=C(Nc3ccccc3)N2CCCC2CCCC2)cc1 | inconclusive [inhibitor, single point] | – |

| Compound | Potency | activity change, negative = growth inhibition |
| --- | --- | --- |
| Cc1ccc(-c2nc(-c3nccc4ccccc34)oc2-c2ccccc2)cc1 | inconclusive [inhibitor, single point] | – |
| O=C(OCC(=O)N1CCN(c2ccccc2)CC1)c1ccccc1NCCO | inactive | – |
| CN(Cc1ccccc1)C(=O)c1[nH]cnc1C(=O)NCC(=O)OCc1ccccc1 | inactive | – |
| c1ccc(-c2csc(Nc3ncccn3)n2)cc1 | inconclusive [inhibitor, full curve] | – |
| Cc1ccc(C(=O)Nc2cccc(C(=O)OCc3cc(=O)n4c5c(sc4n3)CCCC5)c2)cc1 | inconclusive [inhibitor, single point] | – |
| Cc1ccc(NC(=O)C2CCCN(S(=O)(=O)c3cccc4cccnc34)C2)cc1Cl (centres undefined) | inconclusive [inhibitor, single point] | – |
| O=C1c2ccccc2CCC12N=NCC2c1ccc(Br)cc1 (centres undefined) | inactive | – |
| COC(=O)c1cc(OC)c(OC)cc1NC(=O)C(C)Sc1ccc(C)cc1 (centres undefined) | inconclusive [inhibitor, single point] | – |
| CCOC(=O)c1cc(S(=O)(=O)Nc2cccc(OC)c2)cn1C | active: 20.6 µM | – |
| O=C(CCn1cnnn1)Nc1ccc(Cl)cc1Cl | inconclusive [inhibitor, single point] | – |
| COc1ccc(N2CCN(S(=O)(=O)c3c(C)nc4scc(C)n4c3=O)CC2)cc1 | inactive | – |
| Cc1ccc(O)c(-c2cc(-c3cccc(Br)c3)n[nH]2)c1 | inconclusive [inhibitor, single point] | – |
| CCN(CC(=O)NCc1cccs1)C(=O)c1cccc(S(=O)(=O)NCc2ccccc2)c1 | inactive | – |
| Cc1ccc(NC(=O)CC2C(=O)N(Cc3ccccc3)C(=S)N2NC(=O)c2cccc(F)c2)c(C)c1 (centres undefined) | inconclusive [inhibitor, single point] | – |
| CN(C(=O)CCN1C(=O)/C(=C/c2ccccc2F)SC1=S)C1CCS(=O)(=O)C1 (centres undefined) | inactive | – |
| NS(=O)(=O)c1ccc(NC(=O)c2ccc(S(=O)(=O)N3CCCCCC3)cc2)cc1 | inconclusive [inhibitor, single point] | – |
| COc1cc(/C=C2\SC(=S)N(CCC(=O)N3CCN(C)CC3)C2=O)cc(OC)c1OC | inconclusive [inhibitor, single point] | – |
| Cc1ccc(C)c(NC(=O)N2CC=C(c3c[nH]c4ccccc34)CC2)c1 | inconclusive [inhibitor, single point] | – |
| Cn1c(CSCc2ccc(Cl)c(Cl)c2)nnc1SCC(=O)Nc1nccs1 | active: 25.9 µM | – |
| COc1ccc(-c2noc3c2-c2nc(C4CCCCC4)sc2CC3)cc1 | inconclusive [inhibitor, single point] | – |
| Cc1ccc2c(N)[nH]nc2n1 | inactive | – |
| CSc1ccc(Cl)c(C(=O)OCC(=O)N(C)CCC#N)c1 | inactive | – |
| O=C(CCC1CCCN(C(=O)c2ccc3c(c2)OCCO3)C1)NCc1ccccc1F (centres undefined) | inactive | – |
| Cc1cccc(N(C)C(=O)C(Cc2ccccc2)NS(=O)(=O)c2cccc3nsnc23)c1 (centres undefined) | inconclusive [inhibitor, single point] | – |
